# Laboratory results taken from the BET-seq Pho4 binding data (Le et al. 2018).
# Some of the results follow. Values were computed here from the reads of four pooled replicates and scatter widely.
# Biological target: T1, Pho4 (S. cerevisiae) (UniProt P07270)
# T1 sequence: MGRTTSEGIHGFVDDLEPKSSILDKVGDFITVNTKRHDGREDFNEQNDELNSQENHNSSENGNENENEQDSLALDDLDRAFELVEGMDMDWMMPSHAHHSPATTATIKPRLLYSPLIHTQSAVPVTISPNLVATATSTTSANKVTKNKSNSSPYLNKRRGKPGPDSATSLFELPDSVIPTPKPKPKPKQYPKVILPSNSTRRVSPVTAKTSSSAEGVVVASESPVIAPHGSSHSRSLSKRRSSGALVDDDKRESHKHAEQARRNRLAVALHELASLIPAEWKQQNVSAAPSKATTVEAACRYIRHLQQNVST
# Experiment: relative binding free energy (BET-seq); higher = weaker binding
# Conditions: reference: library average
row,Sequence,relative binding free energy [kcal/mol]
1,TAAGGCACGTGTATAG,-0.18
2,ATTTTCACGTGATTGC,0.37
3,TCTGTCACGTGATGAT,0.2
4,AAGTTCACGTGAGCGT,0.33
5,TAATGCACGTGTCGAG,0.11
6,GATGGCACGTGAAAAT,0.34
7,TGTGACACGTGATGTC,0.17
8,ACAGGCACGTGTATGT,-0.14
9,GTGGACACGTGCAGTG,0.06
10,ACGGTCACGTGGTAAT,0.18
11,AAGGACACGTGAGCGG,0.13
12,GTGTCCACGTGATTGT,0.06
13,ATTGCCACGTGGTCTG,-0.2
14,TAGGGCACGTGTTAGC,-0.05
15,TGGTTCACGTGTTTCG,0.28
16,GGGTGCACGTGGTAGC,-0.11
17,TCAGGCACGTGGGGTT,-0.25
18,AGTGCCACGTGGAAAG,0.21
19,TGGAACACGTGTGGGT,0.13
20,GGGACCACGTGGTGCG,-0.17
21,GGAAACACGTGGTATG,-0.11
22,GCTTTCACGTGCGAGG,0.4
23,TTTTCCACGTGGTAAT,0.04
24,AGGTGCACGTGGATCG,-0.05
25,GGGGGCACGTGTGGAC,-0.14

row,Sequence,relative binding free energy [kcal/mol]
1,TTTAGCACGTGAGTTT,0.21
2,TGCACCACGTGTGGGG,-0.17
3,GAGGTCACGTGTAATA,0.24
4,TGGGCCACGTGGGGTG,-0.23
5,TGACACACGTGATGTG,0.12
6,TAAATCACGTGGGTAG,-0.03
7,AGGTGCACGTGGGAAA,-0.09
8,TGTGTCACGTGCGCTG,-0.02
9,AGCAGCACGTGTTGTA,0
10,TTCGGCACGTGACGGG,0.09
11,GAATGCACGTGTTATA,0.04
12,GAGCTCACGTGTCGGT,0.32
13,GGAAGCACGTGAGGAG,0.2
14,GGGAACACGTGGGGGA,-0.04
15,GGTGCCACGTGAGATT,0.31
16,TTGTTCACGTGGTGCG,0.22
17,AGTGACACGTGTCCGG,0.01
18,TCAGGCACGTGCTTGG,-0.23
19,AGTAGCACGTGGTGAG,-0.14
20,TGTTACACGTGCGGTG,0.09
21,TGTCTCACGTGGTTGC,0.2
22,TGTAGCACGTGTGTAC,0.04
23,TATTTCACGTGTGCAA,0.28
24,TCTTACACGTGTTATT,-0.01
25,GTGTGCACGTGGTTGC,-0.04

row,Sequence,relative binding free energy [kcal/mol]
1,TATGCCACGTGATGTT,-0.1
2,GTGGTCACGTGCGGAG,0.1
3,TTGGGCACGTGAGTTG,0.26
4,AGTTGCACGTGCGGTC,-0.02
5,GCTAGCACGTGGTGTG,-0.12
6,AGGTACACGTGTACTG,-0.05
7,ATTTTCACGTGTTCTG,0.23
8,GTTCGCACGTGTTGTC,0.1
9,CTGTACACGTGTTGTT,0.1
10,GAGGGCACGTGGAATT,0.12
11,ATTTACACGTGTGTGC,-0.03
12,CGTTGCACGTGGTAGA,-0.18
13,GATATCACGTGTTTAG,0.15
14,CAGAGCACGTGTGGAG,0.06
15,TGATTCACGTGTAGGA,0.28
16,CTGCTCACGTGTGGGT,0.11
17,TGAGCCACGTGTTTTA,-0.01
18,AAGCGCACGTGGGTGG,-0.33
19,GGTCTCACGTGTACTT,0.35
20,ATGGGCACGTGTGCGC,-0.1
21,GGCGGCACGTGTGCAT,0.12
22,ATGGTCACGTGAGGTC,0.3
23,ATATTCACGTGTCGTG,0.3
24,ACTGACACGTGGGGGA,0
25,TTCTTCACGTGTCTGG,0.22

row,Sequence,relative binding free energy [kcal/mol]
1,GTGTGCACGTGGCTGC,0
2,CTTTGCACGTGAAATG,0.14
3,TCTGTCACGTGGGGTG,0.02
4,TGTGGCACGTGGCTTA,-0.12
5,TTGTACACGTGGTCGG,-0.14
6,TAGTACACGTGATGGT,0.15
7,TGTCTCACGTGCTCGG,0.31
8,CATTTCACGTGTCTGG,0.35
9,AATAGCACGTGAGAGG,0.13
10,TCGTGCACGTGGTGTA,-0.19
11,TTATTCACGTGTGGGG,0.21
12,TGCGTCACGTGAGTGG,0.31
13,GGTTCCACGTGTGAGT,0.15
14,TATGTCACGTGGTGGG,0.06
15,CGCTGCACGTGTGGGT,-0.01
16,TTGGACACGTGAGGGG,0.28
17,CAATGCACGTGTAGTG,0.19
18,GATTACACGTGGTAAG,0.08
19,AAAATCACGTGAGGTG,0.3
20,AGTCGCACGTGTAGGA,-0.03
21,CGTTTCACGTGTTTTC,0.3
22,ATGATCACGTGTTGTC,0.16
23,TCTGGCACGTGGACGT,-0.1
24,CGTGTCACGTGAGTCT,0.36
25,TGGAGCACGTGGTTTT,0

row,Sequence,relative binding free energy [kcal/mol]
1,TTTTACACGTGGGAAC,0.12
2,AATTGCACGTGTGTCA,0.08
3,GAAAACACGTGAGGTG,0.4
4,TTAGGCACGTGGTAAA,-0.11
5,TGTGCCACGTGGTGTA,-0.31
6,TTTAACACGTGTTTAA,-0.01
7,TGGTTCACGTGGTCGT,0.23
8,TAGTTCACGTGTAGCT,0.21
9,TGGAGCACGTGGGGCT,-0.21
10,TTTAGCACGTGTCGGT,0
11,GGGGACACGTGGGGCA,-0.04
12,GTTGACACGTGTGTAC,0.14
13,TAGTTCACGTGGGATG,0.19
14,GGGTTCACGTGCCTGG,0.23
15,GTCGACACGTGGGGTG,-0.16
16,TATTTCACGTGGGTGC,0.12
17,TCGGTCACGTGAGTCG,0.48
18,AAAATCACGTGGTGAG,0.1
19,GTCGTCACGTGTCTGT,0.17
20,GTGAGCACGTGTTGGC,-0.28
21,AGAGACACGTGGTTTA,-0.07
22,AGCTGCACGTGTATGG,0.02
23,TGGAACACGTGAAGTT,0.24
24,GTGAGCACGTGACTGG,0.07
25,GTTTGCACGTGGGAAA,0.11

row,Sequence,relative binding free energy [kcal/mol]
1,TGTGTCACGTGTTTAC,0.11
2,CGCGGCACGTGTAGGA,-0.03
3,ATGAGCACGTGTGCTG,-0.1
4,TGAGTCACGTGAGCAG,0.25
5,TCGGACACGTGTCGGT,0.04
6,TATTCCACGTGTTGTA,0.06
7,AGGAACACGTGTGAAG,0.24
8,TTAGTCACGTGTTGGA,0.07
9,ATAACCACGTGGGTGT,-0.24
10,GGTATCACGTGTGTCT,0.24
11,GGTGACACGTGTAGGT,0.18
12,GTTCGCACGTGGGTGG,-0.07
13,TATTGCACGTGTTGTA,-0.01
14,AAGGGCACGTGGAGCT,-0.05
15,GACGGCACGTGGTTGT,-0.18
16,GAGGGCACGTGGTAAG,-0.08
17,TAAGGCACGTGGTGTC,-0.18
18,GGTATCACGTGGGTCT,0.1
19,GTAGCCACGTGGTTAT,-0.09
20,GAGGTCACGTGGTTCG,0.2
21,TTTAACACGTGGCCGG,0.02
